# Assay results as given in paper PMC12136788.
# Some of the results follow.
# T1: UNK ZnF1-3 (human, UniProt Q9C0B0 31-174)
# T1 sequence: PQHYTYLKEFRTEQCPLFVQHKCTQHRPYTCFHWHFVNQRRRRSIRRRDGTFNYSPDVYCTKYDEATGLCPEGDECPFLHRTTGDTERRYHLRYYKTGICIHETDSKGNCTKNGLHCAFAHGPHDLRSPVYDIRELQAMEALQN
# B1: chr5:137354059:137354060:-_ENSG00000031003_ENST00000033079|hu_hu|FALSE|FALSE (ssRNA)
# RNA: GGGAGUUCUACAGUCCGACGAUCGUGAAUAUGUAAACUGCCAGGGAUAACAGGUUCAGGAAGUUCUUGAAGAAAAAAUCUAAGAAGGCUAAUAGCUGAGGGAACAUCUGCUUCCUUAACCAAAUCCACCUCUUCUCCGCUGUCCAACAGAGGAUUGAGCAUCA
# B2: chr6:57672499:57672500:+_ENSMUSG00000062190_ENSMUST00000050077|mus_hu|motif|central (ssRNA)
# RNA: GGGAGUUCUACAGUCCGACGAUCUCGGAGCAGGUAGGUUUGGUCACAUGUGACCCGGUACAACUGCAGGUACAAAAGGGCGGUGCCUGUCCAGCCAGUAUAAGCAGAGCAGUCAUGGGGAUCAGCUGUCUUCAGCCCUUCUUCCAACAGAGGAUUGAGCAUCA
# B3: chr17:64801638:64801639:+_ENSG00000154229_ENST00000413366|hu_mus|hu_hu_hu_mus_False|98_98 (ssRNA)
# RNA: GGGAGUUCUACAGUCCGACGAUCUAUAUAUAUAUAUAUAUACACACACAUAUAUAGUAAAACCCUAGUUAAACGUGUAAAGUAGCCAUUCAUUUUUAAAAUUACAUCUACAUUAAAAAAUUAAUAUAUCUGAUAGAGUGCCAGCAACAGAGGAUUGAGCAUCA
# B4: chr1:50642785:50642786:+_ENSG00000162374_ENST00000371827|hu_mus|FALSE|FALSE (ssRNA)
# RNA: GGGAGUUCUACAGUCCGACGAUCAGUGUUGAUGGCUUUCUCUGCAUCCUUUGGAUCAAUAUAGUUAACAAAUCCAUACCCUAAACUCUGUCCUGUGAUUUUGUCUCUCACGAGUUUGCAGGAUUCUAUUUCACCAAUGCUCCCCAACAGAGGAUUGAGCAUCA
# B5: chrX:71549400:71549401:+_ENSMUSG00000019087_ENSMUST00000019231|mus_hu|mus_mus_mus_hu_False|28_108 (ssRNA)
# RNA: GGGAGUUCUACAGUCCGACGAUCGCAAGGAAGAGGAGGAAGCUCUUCAGUCCAGUGCGCUGCAGGGUGGGAAAGCAACAACACGGACACCGUCCCACCCUCAACCCUCUCAGGUGUACAGGGUCACACAAUCUGGGUCAAAGACAACAGAGGAUUGAGCAUCA
# B6: chr16:94690093:94690094:+_ENSMUSG00000040785_ENSMUST00000117648|mus_hu|mus_mus_mus_hu_True|28_38 (ssRNA)
# RNA: GGGAGUUCUACAGUCCGACGAUCGGGCUGGGAUGACGGACACACAGCCUCGAUUCCAGGGGGAAAAAGUCUUAGUCGAUACUAAUUAAAAAGUGUUUUUAUAAUUGAUUACCAAAAUUACAUCUAUAAAAGAUGAAAAGCAAACAACAGAGGAUUGAGCAUCA
# B7: 63782044_63782164_1043_ncRNA_ENSMUSG00000025962_ENSMUST00000128621|mouse|control|control (ssRNA)
# RNA: GGGAGUUCUACAGUCCGACGAUCCAGAGAAGUCAGGUGUUACCUCCAAUUUCUUCUUAAGUGCAGAUGGUGCGUCUUUCCCAAUACAUUUCAUCACUGUUUGUAAGGUGAAGACAUGUUUUAUGUUCCAAACUUGCUGAUCAACAACAGAGGAUUGAGCAUCA
# B8: chr15:83699029:83699030:-_ENSG00000064726_ENST00000261721|hu_mus|FALSE|FALSE (ssRNA)
# RNA: GGGAGUUCUACAGUCCGACGAUCGCAUCGUGGCCGAUCAAUGUACUCUACUCGGGGUUUAGGAUUGACGGUAAAAUGAAGAAAGAGGUUUACCACUUCACGGUCUGACAAAAUUCCAGAUUGAGCAGGACCUGCUGCAAACUCCAACAGAGGAUUGAGCAUCA
# B9: chr12:105536279:105536280:+_ENSG00000136051_ENST00000332180|hu_mus|FALSE|FALSE (ssRNA)
# RNA: GGGAGUUCUACAGUCCGACGAUCAGCACUGAACAUGUAAUGUAAUCUGGCUGCAUCGACAGCAUUUUCAUAUACAUCAUCUAAAUAAAUCGGGAAGACAGCGCGAUGCCAGUAUAAAAAACAGCAGUCACACUGUGCUUGGACCAACAGAGGAUUGAGCAUCA
# B10: chr2:42509997:42509998:+_ENSG00000143924_ENST00000318522|hu_mus|hu_hu_hu_mus_True|38_58 (ssRNA)
# RNA: GGGAGUUCUACAGUCCGACGAUCUCGCUGAGUCCUCUCCUCAUAAUUAAACAGGACUACCACUGAGGCGAUAAAAUAAACUAUUUUCCCUGUGGGAAGAAGGUAAACAUUCGCUCUACAGUCCUUUCCUCGAUAACCGUAUACCAACAGAGGAUUGAGCAUCA
# B11: chr4:62795864:62795865:+_ENSMUSG00000028358_ENSMUST00000107415|mus_hu|motif|central (ssRNA)
# RNA: GGGAGUUCUACAGUCCGACGAUCCAGAGUCUAAAUCAAAUCUGAAGAAACAAAAUGAACCCCCAAACAAGGUAAAAAUUGCGGAAAUGUUAGGGAGAGAAAUUAUUAGGGAGUGGAGACAGUAUCUAUACUUCUCUGAAAAAUCAACAGAGGAUUGAGCAUCA
# B12: chr11:72025555:72025556:-_ENSMUSG00000020801_ENSMUST00000021157|mus_mus|motif|central (ssRNA)
# RNA: GGGAGUUCUACAGUCCGACGAUCCGCACACUGCGCAUUCACCAGCUCCUUGCGAAAGUGCUCAUACUGGAGCAGCUCGGACAUAUGUAAGCACUGAGGGUACUUUAGAUAUUUGGCAUAUUCUGGUUCUUUCCAGUAAAGCAACAACAGAGGAUUGAGCAUCA
# B13: chr8:59488481:59488482:+_ENSG00000137575_ENST00000447182|hu_hu|FALSE|FALSE (ssRNA)
# RNA: GGGAGUUCUACAGUCCGACGAUCUCCAACAUCAUUACCAGUUACAGGAGCCACCAUAUAGUUUAUACUGGAAGGUCUUGCUACCAACCCCUGAAGUGGUGCACCAGAAACCACGGCCACAUUUGCACGUAUUUCUUCUUCAUUCAACAGAGGAUUGAGCAUCA
# B14: 132416488_132418784_630_CDS_ENSMUSG00000028879_ENSMUST00000030698|mouse|control|control (ssRNA)
# RNA: GGGAGUUCUACAGUCCGACGAUCUUUGAUGAGUUCCAGGUCUUGCUCAGUGAUGGCCGCCUCUUCCUCCUGGCUCUGCAUUUGGUUCCACUCUUCAUGGCUGUCAAAUGAGACGAGCUGCUCUUCUCUCUGCCUGUCUUCUGCCAACAGAGGAUUGAGCAUCA
# Biological target: T1, UNK ZnF1-3
# Assay: nsRBNS (natural sequence RNA bind-n-seq); RBNS binding buffer (assumed for nsRBNS): 25 mM Tris pH 7.5, 150 mM KCl, 3 mM MgCl2, 0.01% Triton X-100, 500 ug/ml BSA, 20 U/ml SUPERase-In, 4 C; UNK is unkempt and MSI1 is Musashi-1; names of the RNAs are library labels; protein concentration not given here; high values mean tight binding
row,Binder,binding signal
1,B1,1.17 enrichment R
2,B2,1.03 enrichment R
3,B3,2.42 enrichment R
4,B4,0.478 enrichment R
5,B5,0.944 enrichment R
6,B6,1.26 enrichment R
7,B7,0.609 enrichment R
8,B8,1.1 enrichment R
9,B9,1.65 enrichment R
10,B10,1.14 enrichment R
11,B11,1.32 enrichment R
12,B12,0.73 enrichment R
13,B13,1.25 enrichment R
14,B14,0.485 enrichment R
